# Results reported in the supplement of paper PMC8728848.
# The list shows a part of the results.
# B1: LFA (Limax flavus) (protein)
# chain: MSVLFLAASFLLLASFELVAAQGCPRQDPGDWIVIQRRLNADVNFYRGWADYKHGFGDLRCNFWLGNEKIHQLTSHGRYKLRVEFTFNNKSYFAEYSTFKILGEADKYKLQVGGYSGNAGDALTFHNGMAFSTNDRDNDADSIDCAKVYHGAWWYKTCHESNLNGKWGSKKYGEGLNWKAKTTFTATATSSLLKIKALK
# Columns and labels:
# Experiment in all cases: glycan array binding signal (z-score within array); higher = stronger binding
# Settings in all cases: glycan notation: IUPAC condensed, linker removed
# [1] = molecular target: Gal(b1-4)GlcNAc(b1-3)Gal(b1-4)GlcNAc(b1-3)Gal(b1-4)GlcNAc(b1-3)Gal(b1-4)GlcNAc(b1-2)Man(a1-3)[Gal(b1-4)GlcNAc(b1-3)Gal(b1-4)GlcNAc(b1-3)Gal(b1-4)GlcNAc(b1-3)Gal(b1-4)GlcNAc(b1-2)Man(a1-6)]Man(b1-4)GlcNAc(b1-4)GlcNAc
# Outline: (§1)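 Glycan array data came from 3228 arrays in the Consortium for Functional Glycomics database, and only arrays with an available protein sequence were kept. Glycan names were put into IUPAC-condensed notation, and columns mapping to the same glycan were averaged. The binding signal is a within-array Z-score, averaged across arrays of one protein sequence run at different concentrations or buffers and across linkers. A negative Z-score can be read as non-binding.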
# [2] = molecular target: Gal(b1-4)GlcNAc(b1-3)Gal(b1-4)GlcNAc(b1-3)Gal(b1-4)GlcNAc(b1-3)Gal(b1-4)GlcNAc(b1-2)Man(a1-3)[Gal(b1-4)GlcNAc(b1-3)Gal(b1-4)GlcNAc(b1-3)Gal(b1-4)GlcNAc(b1-3)Gal(b1-4)GlcNAc(b1-2)Man(a1-6)]Man(b1-4)GlcNAc(b1-4)[Fuc(a1-6)]GlcNAc
# Outline: as §1
# [3] = molecular target: Gal(b1-4)GlcNAc(b1-3)Gal(b1-4)GlcNAc(b1-3)Gal(b1-4)GlcNAc(b1-3)Gal(b1-4)GlcNAc(b1-2)[Gal(b1-4)GlcNAc(b1-3)Gal(b1-4)GlcNAc(b1-3)Gal(b1-4)GlcNAc(b1-3)Gal(b1-4)GlcNAc(b1-6)]Man(a1-6)[Gal(b1-4)GlcNAc(b1-3)Gal(b1-4)GlcNAc(b1-3)Gal(b1-4)GlcNAc(b1-3)Gal(b1-4)GlcNAc(b1-2)Man(a1-3)]Man(b1-4)GlcNAc(b1-4)[Fuc(a1-6)]GlcNAc
# Outline: as §1
# [4] = molecular target: Gal(b1-4)GlcNAc(b1-3)Gal(b1-4)GlcNAc(b1-3)Gal(b1-4)GlcNAc(b1-3)Gal(b1-4)GlcNAc(b1-3)Gal(b1-4)GlcNAc(b1-2)Man(a1-3)[Gal(b1-4)GlcNAc(b1-3)Gal(b1-4)GlcNAc(b1-3)Gal(b1-4)GlcNAc(b1-3)Gal(b1-4)GlcNAc(b1-3)Gal(b1-4)GlcNAc(b1-2)Man(a1-6)]Man(b1-4)GlcNAc(b1-4)GlcNAc
# Outline: as §1
# [5] = molecular target: Gal(b1-4)GlcNAc(b1-3)Gal(b1-4)GlcNAc(b1-3)Gal(b1-4)GlcNAc(b1-3)Gal(b1-4)GlcNAc(b1-3)Gal(b1-4)GlcNAc(b1-2)Man(a1-3)[Gal(b1-4)GlcNAc(b1-3)Gal(b1-4)GlcNAc(b1-3)Gal(b1-4)GlcNAc(b1-3)Gal(b1-4)GlcNAc(b1-3)Gal(b1-4)GlcNAc(b1-2)Man(a1-6)]Man(b1-4)GlcNAc(b1-4)[Fuc(a1-6)]GlcNAc
# Outline: as §1
# [6] = molecular target: Gal(b1-4)GlcNAc(b1-3)Gal(b1-4)GlcNAc(b1-3)Gal(b1-4)GlcNAc(b1-3)Gal(b1-4)GlcNAc(b1-3)Gal(b1-4)GlcNAc(b1-2)[Gal(b1-4)GlcNAc(b1-3)Gal(b1-4)GlcNAc(b1-3)Gal(b1-4)GlcNAc(b1-3)Gal(b1-4)GlcNAc(b1-3)Gal(b1-4)GlcNAc(b1-6)]Man(a1-6)[Gal(b1-4)GlcNAc(b1-3)Gal(b1-4)GlcNAc(b1-3)Gal(b1-4)GlcNAc(b1-3)Gal(b1-4)GlcNAc(b1-3)Gal(b1-4)GlcNAc(b1-2)Man(a1-3)]Man(b1-4)GlcNAc(b1-4)[Fuc(a1-6)]GlcNAc
# Outline: as §1
# [7] = molecular target: Gal(b1-4)GlcNAc(b1-3)Gal(b1-4)GlcNAc(b1-3)Gal(b1-4)GlcNAc(b1-3)Gal(b1-4)GlcNAc(b1-3)Gal(b1-4)GlcNAc(b1-3)Gal(b1-4)GlcNAc(b1-2)Man(a1-3)[Gal(b1-4)GlcNAc(b1-3)Gal(b1-4)GlcNAc(b1-3)Gal(b1-4)GlcNAc(b1-3)Gal(b1-4)GlcNAc(b1-3)Gal(b1-4)GlcNAc(b1-3)Gal(b1-4)GlcNAc(b1-2)Man(a1-6)]Man(b1-4)GlcNAc(b1-4)GlcNAc
# Outline: as §1
# [8] = molecular target: Gal(b1-4)GlcNAc(b1-3)Gal(b1-4)GlcNAc(b1-3)GalNAc
# Outline: as §1
# [9] = molecular target: Gal(b1-4)GlcNAc(b1-3)Gal(b1-4)GlcNAc(b1-3)[Gal(b1-4)GlcNAc(b1-3)Gal(b1-4)GlcNAc(b1-6)]GalNAc
# Outline: as §1
# [10] = molecular target: Gal(b1-4)GlcNAc(b1-3)Gal(b1-4)GlcNAc(b1-6)[Gal(b1-3)]GalNAc
# Outline: as §1
# [11] = molecular target: Gal(b1-4)GlcNAc(b1-3)Gal(b1-4)[Fuc(a1-3)]GlcNAc(b1-3)Gal(b1-4)[Fuc(a1-3)]GlcNAc
# Outline: as §1
# [12] = molecular target: Gal(b1-4)GlcNAc(b1-3)GalNAc
# Outline: as §1
# [13] = molecular target: Gal(b1-4)GlcNAc(b1-3)[Fuc(a1-3)GlcNAc(b1-6)]Gal(b1-4)Glc
# Outline: as §1
# [14] = molecular target: Gal(b1-4)GlcNAc(b1-3)[Gal(b1-4)GlcNAc(b1-6)]Gal(b1-4)GlcNAc
# Outline: as §1
# [15] = molecular target: Gal(b1-4)GlcNAc(b1-3)[GlcNAc(b1-6)]Gal(b1-4)GlcNAc
# Outline: as §1
# [16] = molecular target: Gal(b1-4)GlcNAc(b1-6)Gal(b1-4)GlcNAc
# Outline: as §1
# [17] = molecular target: Gal(b1-4)GlcNAc(b1-6)GalNAc
# Outline: as §1
# [18] = molecular target: Gal(b1-4)GlcNAc(b1-6)[Gal(b1-3)]GalNAc
# Outline: as §1
# [19] = molecular target: Gal(b1-4)GlcNAc(b1-6)[Gal(b1-4)GlcNAc(b1-3)]GalNAc
# Outline: as §1
# Gal(b1-4)GlcNAc6P = molecular target: Gal(b1-4)GlcNAc6P
# Outline: as §1
# Gal(b1-6)Gal = molecular target: Gal(b1-6)Gal
# Outline: as §1
# Gal3S(b1-3)GalNAc = molecular target: Gal3S(b1-3)GalNAc
# Outline: as §1
# Gal3S(b1-3)GlcNAc = molecular target: Gal3S(b1-3)GlcNAc
# Outline: as §1
binder,measurement,setting,value
B1,glycan array binding signal (z-score),[1],0.243
same,glycan array binding signal (z-score),[2],0.267
same,glycan array binding signal (z-score),[3],0.856
same,glycan array binding signal (z-score),[4],-0.006
same,glycan array binding signal (z-score),[5],0.368
same,glycan array binding signal (z-score),[6],0.879
same,glycan array binding signal (z-score),[7],0.71
same,glycan array binding signal (z-score),[8],2.68
same,glycan array binding signal (z-score),[9],2.39
same,glycan array binding signal (z-score),[10],2.21
same,glycan array binding signal (z-score),[11],-0.223
same,glycan array binding signal (z-score),[12],1.17
same,glycan array binding signal (z-score),[13],0.216
same,glycan array binding signal (z-score),[14],-0.331
same,glycan array binding signal (z-score),[15],-0.373
same,glycan array binding signal (z-score),[16],-0.291
same,glycan array binding signal (z-score),[17],-0.258
same,glycan array binding signal (z-score),[18],-0.264
same,glycan array binding signal (z-score),[19],-0.145
same,glycan array binding signal (z-score),Gal(b1-4)GlcNAc6P,-0.307
same,glycan array binding signal (z-score),Gal(b1-6)Gal,-0.257
same,glycan array binding signal (z-score),Gal3S(b1-3)GalNAc,0.487
same,glycan array binding signal (z-score),Gal3S(b1-3)GlcNAc,-0.238
